This is one part of the list. Sequences were assembled here from the parent chain. Inactive controls read about 0.05.
B1: TEV protease; numbered along this chain (parent)
chain: MGESLFKGPRDYNPISSSICHLTNESDGHTTSLYGIGFGPFIITNKHLFRRNNGTLVVQSLHGVFKVKDTTTLQQHLVDGRDMIIIRMPKDFPPFPQKLKFREPQREERICLVTTNFQTKSMSSMVSDTSCTFPSGDGIFWKHWIQTKDGQCGSPLVSTRDGFIVGIHSASNFTNTNNYFTSVPKNFMELLTNQEAQQWVSGWRLNADSVLWGGHKVFMVKPEEPFQPVKEATQL

Variants of: B1
Test: raw area under fraction-flipped curve 0-4 h after induction (AUC4h, not background-subtracted), DNA-recorder readout of cleavage of the substrate (dimensionless); higher = more cleavage of the substrate by the protease variant
Conditions: temperature: 34 °C; time window: 0-4 h after rhamnose induction
Protocol: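 In vivo DNA recorder in E. coli TOP10(DE3) ΔrhaA at 34 °C. Each TEVp single-site mutant (parent TEVp 0) is paired with a single-site variant of the 7-mer TEVs (canonical ENLYFQ|S). The substrate sits between flexible linkers in a Bxb1-sfGFP-TEVs-SsrA fusion, so cleavage stabilises Bxb1 and speeds flipping of a recombination array, read by NGS. The value is the raw area under the fraction-flipped curve over 0-4 h after rhamnose induction (AUC4h), with ≥20 reads per time point. It is not background-subtracted; inactive controls average about 0.047.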
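Further: Bxb1 expression induced with 0.2% (w/v) L-rhamnose at OD600 near 0.5, cultures sampled hourly, flipped fraction per protease–substrate barcode pair counted by paired-end Illumina sequencing.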

Row | Variant | area with substrate ENLYFQA | area with substrate ENLYFQD | area with substrate ENLYFQH | area with substrate ENLYFQL | area with substrate ENLYFQM | area with substrate ENLYFQN | area with substrate ENLYFQP | area with substrate ENLYFQQ | area with substrate ENLYFQR | area with substrate ENLYFQS | area with substrate ENLYFQT | area with substrate ENLYFQV | area with substrate ENLYFQW | area with substrate ENLYFQY | area with substrate ENLYFQC | area with substrate ENLYFQF | area with substrate ENLYFQG | area with substrate ENLYFQI | area with substrate ENLYFQK | area with substrate ENLYFQE
1 | D69Q | 0.0958 | 0.0671 | 0.0784 | 0.0633 | 0.062 | 0.0725 | 0.0628 | 0.0431 | 0.0459 | 0.091 | 0.0645 | 0.0584 | 0.0683 | 0.0782 | – | – | – | – | – | –
2 | T71A | 0.0912 | 0.0726 | 0.0777 | 0.0658 | 0.0877 | 0.0744 | 0.063 | – | 0.0704 | 0.0897 | 0.0602 | – | 0.0572 | – | 0.108 | 0.061 | 0.0794 | 0.0665 | 0.0498 | –
3 | T71F | 0.0815 | 0.0567 | – | 0.056 | 0.0829 | 0.062 | 0.0556 | 0.0615 | 0.0589 | 0.0828 | 0.0597 | – | 0.0647 | 0.0544 | 0.0828 | 0.0562 | – | 0.0512 | 0.0653 | –
4 | L73G | 0.0485 | – | – | 0.0491 | 0.0468 | 0.0484 | – | – | 0.0542 | 0.0507 | 0.0595 | – | 0.0433 | 0.0534 | 0.053 | – | – | 0.0462 | 0.0502 | 0.0576
5 | Q74D | 0.103 | 0.089 | 0.101 | 0.0661 | 0.0903 | 0.0582 | 0.0501 | 0.0734 | 0.0555 | 0.104 | 0.0604 | 0.0517 | 0.0387 | 0.0828 | 0.106 | – | 0.0917 | 0.0648 | 0.0508 | –
6 | Q74G | 0.0914 | – | 0.0653 | – | 0.0933 | 0.0467 | – | – | 0.0575 | 0.0993 | 0.073 | – | 0.0549 | 0.0822 | 0.116 | 0.0905 | 0.167 | 0.106 | 0.07 | –
7 | V78G | 0.0938 | 0.0591 | 0.0567 | 0.0524 | 0.0854 | – | 0.0607 | – | 0.0629 | 0.0848 | 0.0499 | 0.0537 | 0.0623 | 0.0573 | 0.0925 | – | 0.0833 | – | – | –
8 | D79G | 0.0531 | 0.0848 | – | 0.0204 | 0.0865 | 0.0733 | 0.0608 | 0.0597 | 0.0743 | 0.095 | 0.0645 | – | 0.0596 | 0.0807 | – | – | 0.0858 | – | – | –
9 | D79L | 0.0983 | 0.0644 | 0.0628 | 0.0528 | 0.0601 | – | – | – | 0.0654 | 0.0938 | – | – | 0.047 | 0.0706 | 0.109 | – | 0.086 | – | 0.0721 | 0.0574
10 | D79V | 0.095 | 0.0725 | 0.0622 | 0.0738 | – | – | – | – | 0.0469 | 0.0974 | – | 0.0527 | 0.0588 | 0.0695 | 0.102 | 0.0648 | 0.0895 | 0.0595 | 0.0609 | –
11 | G80H | 0.102 | 0.0797 | 0.0783 | – | 0.0812 | 0.0848 | 0.0664 | – | – | 0.106 | 0.0691 | – | 0.0552 | – | 0.154 | 0.0781 | – | 0.0455 | 0.0615 | –
12 | R81G | 0.0804 | – | – | 0.0599 | – | – | – | – | 0.0567 | 0.0929 | 0.0597 | – | – | 0.0813 | 0.0992 | – | 0.0867 | 0.0629 | – | 0.0633
13 | I85F | 0.075 | 0.0676 | 0.0615 | 0.06 | – | 0.0875 | 0.0472 | 0.0513 | 0.0596 | 0.0966 | 0.0848 | 0.0559 | 0.0667 | – | – | 0.0559 | 0.0718 | 0.0609 | 0.0604 | –
